Source: ChEMBL document CHEMBL4888484, “Replenishing the malaria drug discovery pipeline: Screening and hit evaluation of the MMV Hit Generation Library 1 (HGL1) against asexual blood stage Plasmodium falciparum ,using a nano luciferase reporter read-out” (2022)
Hit rate of the full screen: of about 150,000 compounds, about 540 (0.36%) showed an effect of 50% or more. The list shows a part of the results.

System: Plasmodium falciparum
Experiment: Primary screen in NF54 nanoGlo assay, in single point, at 2uM, 72h; a lower Z score goes with more inhibition
Type: functional, Erythrocyte
Settings: timepoint 72 hour

| SMILES | % Inhibition | Z score |
| --- | --- | --- |
| Cc1cnccc1NC(=O)N[C@@H](C)c1ccc(OC(F)F)cc1 | -6% | 0.54 |
| Cc1cc(C)c(C(=O)NCCOCC(F)F)c(C)c1 | -12% | 2.47 |
| COc1nc(C)c(C(=O)N2CCOC[C@@H](CO)C2)s1 | -2% | 0.33 |
| CC(C)n1nccc1NS(=O)(=O)c1ccc2c(c1)OCCO2 | -15% | 2.34 |
| Cc1cc(C)n(C[C@H](O)COc2cccc3[nH]ccc23)n1 | -7% | 0.89 |
| Cc1cccc(-c2cn[nH]c2C2CCNCC2)c1 | 5% | -0.68 |
| Cc1cccc(C)c1-n1ncc(C(=O)NC2CCCC2)c1C1CCN(C(=O)OC(C)(C)C)CC1 | 2% | -0.23 |
| Cc1cc(C)nc(CNC(=O)N2CCC3(CC2)COC(=O)O3)n1 | -1% | 0.17 |
| CCc1nc(CN2CC[C@](C)(O)[C@H](C)C2)cs1 | -11% | 1.11 |
| O=C(c1nn(-c2ccccc2F)cc1O)N1CCN2CCS(=O)(=O)C[C@@H]2C1 | -13% | 2.05 |
| CCCCN1C(=O)[C@](NS(=O)(=O)c2ccc(NC(C)=O)cc2)(C(F)(F)F)C(C(C)=O)=C1C | -7% | 0.92 |
| O=C1C[C@@H]2CCN(Cc3ccccn3)C[C@@H]2CCOc2ccc(F)cc2N1 | -7% | 1.07 |
| O=C(NCC1CCCN(c2ncccc2Br)C1)C1CCCN1 (stereo not drawn) | -6% | 1.05 |
| Nc1nonc1C(=O)N1CCN(C(=O)Nc2ccc3c(c2)OCCO3)CC1 | 30% | -3.98 |
| CC(=O)N[C@@H](C)CC(=O)N(CCO)Cc1cccs1 | -5% | 0.74 |
| COc1cc(-c2ncc(C(F)(F)F)cc2Cl)cc2c1OCCNC2 | 20% | -2.49 |
| Brc1ccc(CNc2nc(-c3ccco3)n[nH]2)cc1 | -8% | 1.45 |
| CC1(c2nc(-c3ccnc(O)c3)no2)CCCCC1 | -5% | 0.57 |
| O=C(Nc1nc(NC(=O)c2ccccc2)nc(NC(=O)c2ccccc2)n1)c1ccccc1 | -6% | 1.23 |
| CN1CCN(C[C@H]2CCC3(CCN(S(=O)(=O)c4cc(F)cc(F)c4)CC3)O2)CC1 | -7% | 0.95 |
| COc1cccn(CC(=O)N2C[C@@H]3[C@H](C2)[C@H]2CC[C@@H]3O2)c1=O | -8% | 1.37 |
| C[C@@H]1CC[C@H](CO)N1CC1CC2(CCC2)CO1 (stereo partly drawn) | -12% | 1.25 |
| Cc1ccccc1CC1(NC(=O)c2ccn(C)c2C)CC1 | -4% | 0.52 |
| Cc1cccc2[nH]c([C@@H]3CCCN3C(=O)c3cc(C4CC4)n[nH]3)nc12 | -7% | 0.87 |
| CO[C@H]1COC[C@@H]1NC(=O)c1c(F)cccc1Cl | -26% | 2.58 |
| O=S(=O)(Nc1ccc(Cl)cn1)c1ccc2ccccc2c1 | 1% | -0.15 |
| CCc1nnc([C@@H]2Cc3ccccc3CN2)o1 | -5% | 0.71 |

| SMILES | % Inhibition | Z score |
| --- | --- | --- |
| CC(=O)Nc1cccc(Cn2ccnn2)c1 | -15% | 1.58 |
| COc1ccc(Cl)cc1C(=O)N1CC(n2ccnn2)C1 | 3% | -0.55 |
| Cc1noc(COC2CN(C(=O)N[C@H]3CCN(c4ncccc4Cl)C3)C2)n1 | -7% | 1.19 |
| Cc1nc(C)c(F)c(N2CC[C@H](Oc3cccnc3N(C)C)C2)n1 | -14% | 1.81 |
| CCCS(=O)(=O)NC(=O)C1CC1c1cccc(F)c1F (stereo not drawn) | -7% | 0.55 |
| O=c1cc2c(nn1CC1CN(c3cc(=O)n4ccccc4n3)C1)CCC2 | -25% | 3.58 |
| Cn1ncn(CC(=O)NCC2(N3CCOCC3)CCCCC2)c1=O | -12% | 1.71 |
| CC(C)(O)c1cc(CC2(NCc3cccc4c3OCO4)COC2)no1 | 1% | -0.12 |
| CC(C)C1CCC(C(=O)NC(Cc2ccccc2)C(=O)NC2CCS(=O)(=O)C2)CC1 (stereo not drawn) | 4% | -0.57 |
| O=C(Nc1cccnc1)N1CCC(CN2C(=O)c3ccccc3C2=O)CC1 | -11% | 0.96 |
| CC(C)C[C@H](CCO)CNC(=O)NCC1CC1 | -6% | 1.07 |
| Cc1nnc([C@H](C)N2CCCN(Cc3ccccc3C)CC2)o1 | 0% | 0.03 |
| Cc1cc(C)nc(CN(C)C(=O)NCCCN2CCCC2=O)c1 | -7% | 0.93 |
| COCc1noc(-c2n[nH]c(=O)c3ccccc23)n1 | -9% | 1.32 |
| c1cc2cc(Cn3cnc4c3CCCC4)ccc2cn1 | -6% | 0.71 |
| c1ccc(C2=NN(c3ccc(-c4cc(-c5ccccc5)[n+](-c5ccccc5)c(-c5ccccc5)c4)cc3)[C@H](c3ccccc3)C2)cc1 | 91% | -14.02 |
| CC(C)CC[C@H]1CCCCN1CCCC(=O)O | -12% | 1.51 |
| COc1ccccc1C/N=C1\C(c2ccc(C(C)C)cc2)=Nc2ncnn21 | -4% | 0.52 |
| Cc1n[nH]c(C)c1CCC(=O)N1CCC(n2c(=O)[nH]c3ccsc3c2=O)CC1 | -11% | 2.16 |
| CC(=O)NC(C)(C)C(=O)Nc1cc(-c2ccccc2C)nn1C | 2% | -0.24 |
| CC(C)CN(C)[C@H]1CN(C(=O)c2[nH]cnc2-c2ccccc2)C[C@@H]1O | 0% | -0.06 |
| Cc1noc(C)c1CCC(=O)N1CCC(c2nnc(C(C)C)o2)CC1 | 9% | -1.13 |
| Cc1cccc2[nH]c([C@H]3CCCN(C(=O)c4ccc5cc[nH]c5c4)C3)nc12 | -9% | 1.82 |
| CC(C)O[C@@H]1CCN(C[C@H](O)c2ccc(C(F)(F)F)cc2)C1 | 45% | -3.9 |
| Cc1ccnc([C@H]2CCN(C(=O)c3cc(C)ccc3F)C2)c1 | -16% | 3.21 |
| COC(=O)c1cncc(C(=O)NCCC2CC3CCC2C3)c1 (stereo not drawn) | -11% | 1.13 |
| CC(=O)c1cccc(NC(=O)C2CCN(C(=O)c3ccc4c(c3)nnn4C3CCCC3)CC2)c1 | -20% | 3.59 |
